Test results: PubChem BioAssay AID1508642 (National Center for Advancing Translational Sciences (NCATS), 2021)
The campaign covered roughly 43,000 compounds. About 200 (0.47%) were called active. Inconclusive results, whose numbers are uncertain, are shown with a selection of clear calls. The call rests on the fitted dose curve; in most records, active means well fitted cell-killing curve with a large enough effect; inconclusive means small, poorly fitted or top-dose-only effect, or effect the other way; inactive means flat fitted curve, though single readings scatter. Potencies beside an inconclusive call are fits to weak or partial responses and may not hold up.

assay: Cell viability qHTS assay in S16 Pmp22-F2sN cells; settings: S16 Pmp22-F2sN Schwann cells (luciferase reporters placed in the Pmp22 gene) viability, CellTiter-Glo, 24 h; series mostly up to 57.5 µM; further: nearly all actives have a fitted effect of over 65% in size
In short: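 Luminescence from CellTiter-Glo, read by CCD camera after a 15 min room-temperature incubation, served as the viability signal. Reporter Schwann cells (S16 Pmp22-F2sN) had been treated with pin-transferred compounds for 24 h at 37C.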
Potency means the concentration at half of the fitted maximal effect; tags describe the fitted curve by direction and shape.

Compound | Potency
CCN1CCN(c2c(S(=O)(=O)c3ccc(OC)cc3)cnc3cc(OC)c(OC)cc23)CC1 | inconclusive: 14.1 µM [cytotoxic, partial curve, poor fit]
CCN1CCN(c2c(S(=O)(=O)c3ccc(C)c(C)c3)cnc3cc(OC)c(OC)cc23)CC1 | inconclusive: 25.1 µM [cytotoxic, partial curve, poor fit]
CCN(CC)C(=O)c1sc2c(c1C)c(=O)n(-c1ccccc1)c(=O)n2CC(=O)Nc1ccc(C)cc1C | inconclusive: 22.4 µM [cytotoxic, single point]
CCOC(=O)c1cc2c(=O)n3ccccc3nc2n(CCCOC)c1=NC(=O)C(C)Oc1ccccc1 (configuration not stated) | inconclusive: 39.8 µM [cytotoxic, partial curve, poor fit]
CCOc1cc(CNc2ccc(O)cc2)ccc1OCc1ccc(Cl)cc1 | inconclusive: 39.8 µM [cytotoxic, single point]
CC(=O)Nc1cc(NC(C)=O)cc(-c2nc3ccccc3[nH]2)c1 | inconclusive: 39.8 µM [cytotoxic, single point]
CCN(CC)CCNC(=O)c1ccc2c(c1)sc1nc(-c3ccc(F)cc3)cn12 | inconclusive: 25.1 µM [cytotoxic, single point]
COc1cccc(-c2nc(CSCC(=O)NCCc3ccc(Cl)cc3)c(C)o2)c1 | inconclusive: 35.5 µM [cytotoxic, partial curve, poor fit]
CCCCN(CCCC)CC(O)Cn1cc(/C=C/C(=O)c2ccccc2)c2ccccc21 (configuration not stated) | inconclusive: 39.8 µM [cytotoxic, single point]
COc1ccc(CCNc2ncnc3c2cnn3-c2cccc(Cl)c2)cc1 | inconclusive: 28.2 µM [rising, partial curve, poor fit]
Cc1ccc(Cl)cc1NC(=O)CSC1=Nc2ccccc2C2=NC(Cc3ccccc3)C(=O)N12 (configuration not stated) | inconclusive: 25.1 µM [cytotoxic, single point]
C=Cc1ccc(CSc2nc(-c3ccccc3Cl)nc3c2Cc2c(CO)cnc(C)c2O3)cc1 | inconclusive: 39.8 µM [cytotoxic, single point]
COCCCNC(=O)CSc1c2c(nc3ccc(Cl)cc13)CCCC2 | inconclusive: 25.1 µM [cytotoxic, single point]
Cc1ccc(NS(=O)(=O)c2ccc3[nH]c4c(c3c2)CCCCCC4)cc1Cl | inactive
O=S(=O)(c1cccc(C(F)(F)F)c1)n1c(/C=C/c2ccccc2)nc2ccccc21 | inconclusive: 28.2 µM [cytotoxic, single point]
Nc1c(-c2nc(-c3ccc(Cl)cc3)cs2)c2ccccn2c1C(=O)c1ccc2c(c1)OCO2 | inconclusive: 14.1 µM [rising, partial curve, poor fit]
CCc1ccc(-n2nc(C)c3c(C)cc(=O)n(CC(=O)Nc4ccc(C)c(F)c4)c32)cc1 | inconclusive: 22.4 µM [rising, partial curve, poor fit]
CC1CCc2c(sc(NC(=O)CCCOc3ccc(C(C)(C)C)cc3)c2C(N)=O)C1 (configuration not stated) | inconclusive: 0.447 µM [rising, partial curve, poor fit]
CCc1ccc(NC(=O)CC2C(=O)OCCN2CC)cc1 (configuration not stated) | inconclusive: 39.8 µM [cytotoxic, single point]

Compound | Potency
Cc1cc(C)c2sc(N(Cc3cccnc3)C(=O)CCS(=O)(=O)c3ccccc3)nc2c1 | inconclusive: 35.5 µM [cytotoxic, single point]
Cc1cccc(CSc2cn(CC(=O)N3CCCCC3)c3ccccc23)c1 | inconclusive: 25.1 µM [cytotoxic, partial curve, poor fit]
COc1ccc(N2CCN(C(=O)c3c(C)nn(-c4ccc(F)cc4)c3-n3cccc3)CC2)cc1 | inconclusive: 0.141 µM [cytotoxic, full curve, poor fit]
CC(C)(C)c1ccc(C(=O)Nc2ccc3nc(SCC(=O)N4CCCC4)sc3c2)cc1 | inconclusive: 39.8 µM [cytotoxic, single point]
CCOc1ccccc1NC(=O)Cn1c(=O)n(Cc2ccco2)c(=O)c2cccnc21 | inactive
COc1ccc(CCNC(=O)c2cc3cccc4c3n2CC(C)S4)c(OC)c1OC (configuration not stated) | inconclusive: 7.08 µM [cytotoxic, full curve, poor fit]
CCOc1ccccc1C(=O)N1CCc2cc(OC)c(OC)cc2C1COc1ccc2c(C)cc(=O)oc2c1 (configuration not stated) | inconclusive: 12.6 µM [cytotoxic, partial curve, poor fit]
CCN(C(=O)c1cc(S(=O)(=O)N2CCCCC2)c[nH]1)c1ccc(OC)cc1 | inconclusive: 17.8 µM [cytotoxic, partial curve]
CCOc1ccc(-n2c(-c3ccc(OC)cc3)cc3c2CC(C)(C)CC3=O)cc1 | inconclusive: 39.8 µM [cytotoxic, single point]
COc1cc(OC)c(NC(=O)C(C)n2c(=O)cc(-c3ccccc3)c3c(C)nn(C)c32)cc1Cl (configuration not stated) | inconclusive: 39.8 µM [cytotoxic, single point]
CCc1ccc(NC(=O)N2CC=C(c3c[nH]c4ccccc34)CC2)cc1 | inconclusive: 39.8 µM [cytotoxic, single point]
Cc1ccc(CNS(=O)(=O)c2ccc(F)c(C(=O)Nc3ccc(C)c(F)c3)c2)cc1 | inconclusive: 35.5 µM [cytotoxic, single point]
O=C(NCCS(=O)(=O)N1CCN(c2ccccc2F)CC1)c1cc(=O)c2ccccc2o1 | inconclusive: 6.31 µM [cytotoxic, full curve]
CC(=O)N1CCc2cc(CNS(=O)(=O)c3cccs3)ccc21 | inactive
CCc1ccccc1NC(=O)Cn1nc(-c2cc(C)ccc2C)c2c(c1=O)CCCC2 | inconclusive: 28.2 µM [cytotoxic, single point]
Cc1cccc(NC(c2cccc(Cl)c2)c2ccc3cccnc3c2O)n1 (configuration not stated) | inconclusive: 6.31 µM [cytotoxic, full curve]
COc1cc(NC(=O)Nc2nnc(N3CCCCC3)s2)cc(OC)c1 | inactive
COc1cccc(NC(=O)CSC2=Nc3ccccc3C3=NC(CCC(=O)NC4CCCCC4)C(=O)N23)c1 (configuration not stated) | inconclusive: 22.4 µM [cytotoxic, single point]
Cc1ccc(-n2c3c(c(=O)[nH]c2=O)C(NC(=O)C(C)(C)C)(C(F)(F)F)C(=O)N3)cc1 (configuration not stated) | inactive

Compound | Potency
O=C(NCCc1csc(-c2cccc(F)c2)n1)c1ccco1 | inactive
CCC1=Nc2cc(C(=O)NC3CCCC3)ccc2Sc2ccc(Cl)cc21 | inconclusive: 8.91 µM [cytotoxic, full curve, poor fit]
CCOC(=O)c1cc(S(=O)(=O)N2CCN(c3cccc(C)c3)C(C)C2)[nH]n1 (configuration not stated) | inconclusive: 0.0794 µM [cytotoxic, full curve, poor fit]
CCc1ccc(C2=CC(c3cccc(OC)c3OC)n3c(nc4ccccc43)N2)cc1 (configuration not stated) | inconclusive: 39.8 µM [cytotoxic, single point]
CCCN1CCN(CCCNC(=O)c2cc3c(=O)[nH]c4ccccc4c3s2)CC1 | inconclusive: 39.8 µM [cytotoxic, single point]
CCn1cc2nc(SCc3c(F)cccc3Cl)n(CCc3ccccc3)c(=O)c2n1 | inconclusive: 12.6 µM [cytotoxic, partial curve, poor fit]
COc1ccc(Cl)cc1S(=O)(=O)Nc1ccc2c(c1)n(C)c(=O)n2C | inconclusive: 39.8 µM [cytotoxic, single point]
C#CCOc1c(Br)cc(C2C(C(=O)OC)=C(C)NC3=C2C(=O)c2ccccc23)cc1OCC (configuration not stated) | inconclusive: 25.1 µM [cytotoxic, partial curve]
Cc1ccc(C)c(Cn2c(=O)n(CCc3ccccc3)c(=O)c3c(C)c(C)sc32)c1 | inconclusive: 20 µM [rising, partial curve, poor fit]
Cc1ccc(-c2nnc(Nc3cccc(Br)c3)c3ccccc23)cc1S(=O)(=O)N1CCN(C)CC1 | inconclusive: 39.8 µM [cytotoxic, single point]
CCOC(=O)c1c(Nc2ccc(OCC)cc2)nnc(-c2ccccc2)c1-c1ccccc1 | inconclusive: 31.6 µM [cytotoxic, single point]
CC(C)(C)OC(=O)N1CCC(c2c(C(=O)NCCc3ccsc3)cnn2-c2ccc(F)cc2F)CC1 | inactive
CCOC(=O)c1cc(-c2ccc(OC)cc2)n(CCC(=O)NC2CCC(C)CC2)c1C (configuration not stated) | inconclusive: 39.8 µM [cytotoxic, partial curve, poor fit]
CCOc1ccc(-c2n[nH]c3c2C(c2cccs2)N(c2ccc(Br)cc2)C3=O)cc1 (configuration not stated) | inconclusive: 39.8 µM [cytotoxic, single point]
CC(=O)N1c2ccc(S(=O)(=O)NCC3CCC(C(=O)Nc4cccc(F)c4)CC3)cc2CC1C (configuration not stated) | inconclusive: 4.47 µM [cytotoxic, full curve, poor fit]
COc1ccc(S(=O)(=O)N2CCN(C(=O)c3cc(-c4ccc(Br)cc4)n[nH]3)CC2)cc1OC | inconclusive: 10 µM [cytotoxic, partial curve]
CCOC(=O)N1CCc2c(sc(NCc3ccc(N(C)C)cc3)c2C(=O)Nc2ccccc2OCC)C1 | inconclusive: 7.94 µM [cytotoxic, full curve]
COc1ccccc1Nc1nn2c(=O)c3ccc(C(=O)NC4CCCCC4)cc3nc2s1 | inactive
COc1cccc(C2C=C(c3ccc(C)cc3)Nc3c(C(=O)Nc4ccc(F)cc4)cnn32)c1OC (configuration not stated) | inconclusive: 39.8 µM [cytotoxic, single point]
